From US10364280B2, “Polypeptide” (AFFIBODY AB, priority 2015, dated 2019)

Key:
hB7-H3 = target: T1, hB7-H3 (Homo sapiens, UniProt Q5ZPR3); assay: ELISA specificity test against biotinylated control protein hB7-H3; type: binding; details: control protein added at 8 nM
T1 construct: purchased R&D Systems 1027-B3-100
T1 sequence (Q5ZPR3 29-245 isoform Q5ZPR3-2 limits assumed): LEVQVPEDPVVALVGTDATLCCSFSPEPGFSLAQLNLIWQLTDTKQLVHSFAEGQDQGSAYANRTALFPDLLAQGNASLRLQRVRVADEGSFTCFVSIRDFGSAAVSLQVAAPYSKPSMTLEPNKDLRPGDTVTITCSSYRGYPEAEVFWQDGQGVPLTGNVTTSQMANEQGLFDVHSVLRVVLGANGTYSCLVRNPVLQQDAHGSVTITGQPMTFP
Description: (§1) The binding of Z variants to hPD-L1 was analyzed in ELISA assays. Half-area 96-well ELISA plates (Costar, cat. no. 3690) were coated at 4° C. overnight with 2 μg/ml of an anti-ABD goat antibody (produced in-house) diluted in coating buffer (50 mM sodium carbonate, pH 9.6; Sigma, cat. no. C3041). The antibody solution was poured off and the wells were washed in water and blocked with 100 μl of PBSC (PBS supplemented with 0.5% casein; Sigma, cat. no. C8654) for 1 to 3 h at RT. The blocking solution was discarded and 50 μl periplasmic solutions, diluted 1:1 with PBST 0.05%, were added to the wells and incubated for 1.5 to 2.5 h at RT under slow agitation. As a blank control, PBST 0.05% was added instead of a periplasmic sample. The supematants were poured off and the wells were washed 4 times with PBST 0.05%. Then, 50 μl of biotinylated hPD-L1 at a concentration of 0.32 nM in PBSC was added to each well. The plates were incubated for 1.0 h at RT followed by washes as described above. Streptavidin conjugated HRP (Thermo Scientific, cat no. N100) diluted 1:30,000 in PBSC, was added to the wells and the plates were incubated for approximately 1 h. After washing as described above, 50 μl ImmunoPure TMB substrate (Thermo Scientific, cat no. 34021) was added to the wells and the plates were treated according to the manufacturers recommendations. The absorbance at 450 nm was measured using a multi-well plate reader, Victor^3 (Perkin Elmer).
(§2) A selection of PD-L1 binding Z variants was subjected to an analysis of the response against a dilution series of biotinylated hPD-L1 following the procedure described above. The Z variants, Z13166 (SEQ ID NO:1), Z13359 (SEQ ID NO:3) and Z13398 (SEQ ID NO:4) were diluted 1:1 in PBST 0.05% and biotinylated hPD-L1 was added at a concentration of 40 nM and diluted stepwise 1:4 down to 32 μM. […] Data were analyzed using GraphPad Prism 5 and non-linear regression and EC50 values (the half maximal effective concentration) were calculated.

hB7-H4 = target: T2, hB7-H4 (Homo sapiens, UniProt Q7Z7D3); assay: ELISA specificity test against biotinylated control protein hB7-H4; type: binding; details: control protein added at 8 nM
T2 construct: purchased R&D Systems 6576-B7-50
T2 sequence (Q7Z7D3 25-282): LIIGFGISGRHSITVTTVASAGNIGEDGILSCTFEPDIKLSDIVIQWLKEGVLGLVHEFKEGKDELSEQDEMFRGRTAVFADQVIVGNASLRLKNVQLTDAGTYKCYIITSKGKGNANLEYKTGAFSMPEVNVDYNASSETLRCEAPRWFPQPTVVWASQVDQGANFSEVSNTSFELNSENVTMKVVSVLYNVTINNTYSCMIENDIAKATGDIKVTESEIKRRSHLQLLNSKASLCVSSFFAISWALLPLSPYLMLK
Description: as §1, §2

hPD-L1 binding to hPD-1 = target: T3, hPD-L1 binding to hPD-1 (Homo sapiens, UniProt Q9NZQ7); assay: AlphaLISA blocking assay; details: His6-tagged Z variants; 10 nM (Z13166, Z13398) or 8 nM (Z13178, Z13359) biotinylated hPD-L1; hPD-1 coated Acceptor beads; read-out: IC50 (M) inhibiting binding of PD-L1 to PD-1
T3 construct: purchased R&D Systems 156-B7-100 (hPD-L1); 1086-PD-050 (hPD-1)
T3 sequence (Q9NZQ7 19-239 limits assumed): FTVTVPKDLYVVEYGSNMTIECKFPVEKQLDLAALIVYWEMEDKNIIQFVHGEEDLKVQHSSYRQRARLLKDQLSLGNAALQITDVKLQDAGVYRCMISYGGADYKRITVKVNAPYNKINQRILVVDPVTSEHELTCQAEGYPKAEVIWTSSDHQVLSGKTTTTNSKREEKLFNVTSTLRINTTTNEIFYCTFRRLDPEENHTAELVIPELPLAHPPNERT
Description: The potential of Z variants to inhibit binding of PD-L1 to PD-1 was analyzed by AlphaLISA and recordings in an EnSpire multiplate reader 2300 (Perkin Elmer). hPD-1 (human PD-1 Fc-chimera; R&D Systems, cat. no. 1086-PD-050) was immobilized on AlphaLISA Acceptor beads (Perkin Elmer, cat. no. 6772002) according to the manufacturers recommendations. Stepwise serial dilutions 1:3 of the His-tagged Z variants Z13166 (SEQ ID NO:1) and Z13398 (SEQ ID NO:4) to final concentrations of 250 nM to 12 μM were made in a 384 plate (Perkin Elmer, cat. no. G6005350) and incubated for 1 h with 10 nM biotinylated hPD-L1 in AlphaLISA buffer (Perkin Elmer, cat. no. AL000F). hPD-1-coated Acceptor beads were added to a final concentration of 10 μg/ml and incubated for 1 h. Finally, streptavidin coated Donor beads (Perkin Elmer, cat. no. 6772002) were added to a final concentration of 40 μg/ml and incubated for 30 min. All incubations were performed at RT in the dark. The plate was analyzed in the EnSpire instrument and the IC50 values were calculated using GraphPad Prism 5. AlphaLISA analysis of the Z variants Z13178 (SEQ ID NO:2) and Z13359 (SEQ ID NO:3) was performed essentially as described above but with the following exceptions: Exception 1: stepwise serial dilutions 1:3 of Z variants to final concentrations of 250 nM to 4 μM were made in a 384SW plate (Perkin Elmer, cat. no. 6008350) and incubated for 45 min with 8 nM biotinylated hPD-L1 (R&D Systems) in AlphaLISA buffer (Perkin Elmer, cat. no. AL000F); and Exception 2: hPD-1-coated Acceptor beads were added to a final concentration of 10 μg/ml and incubated for 50 min.

Row | Substance | response against hB7-H3 in ELISA (hB7-H3) | response against hB7-H4 (FIG. 2 legend prints hB7-H7) in ELISA (hB7-H4) | IC50 (hPD-L1 binding to hPD-1)
1 | Z13166: PD-L1 binding Z variant, 58 amino acid residues, SEQ ID NO:1; tested as ABD fusion or His6-tagged (VDAKYAKERTVAVWEIVQLPNLTAWQKGAFINKLHDDPSQSSELLSEAKKLNDSQAPK; Engineered PD-L1 binding polypeptide) | no response | no response | 6.2e-09 M
2 | Z13359: PD-L1 binding Z variant, 58 amino acid residues, SEQ ID NO:3; tested as ABD fusion or His6-tagged (VDAKYAKERTIAVWEIMDLPNLTSWQRGAFIDKLHDDPSQSSELLSEAKKLNDSQAPK; Engineered PD-L1 binding polypeptide) | no response | no response | 1.8e-09 M
3 | Z13398: PD-L1 binding Z variant, 58 amino acid residues, SEQ ID NO:4; tested as ABD fusion or His6-tagged (VDAKYAKERTMATWEIVQLPNLTARQKGAFIWKLHDDPSQSSELLSEAKKLNDSQAPK; Engineered PD-L1 binding polypeptide) | no response | no response | 4.9e-09 M
